{
  "sequences": {"note": "Amino acid sequences for entries named in this document (tags omitted).", "UniProt Q9C518": "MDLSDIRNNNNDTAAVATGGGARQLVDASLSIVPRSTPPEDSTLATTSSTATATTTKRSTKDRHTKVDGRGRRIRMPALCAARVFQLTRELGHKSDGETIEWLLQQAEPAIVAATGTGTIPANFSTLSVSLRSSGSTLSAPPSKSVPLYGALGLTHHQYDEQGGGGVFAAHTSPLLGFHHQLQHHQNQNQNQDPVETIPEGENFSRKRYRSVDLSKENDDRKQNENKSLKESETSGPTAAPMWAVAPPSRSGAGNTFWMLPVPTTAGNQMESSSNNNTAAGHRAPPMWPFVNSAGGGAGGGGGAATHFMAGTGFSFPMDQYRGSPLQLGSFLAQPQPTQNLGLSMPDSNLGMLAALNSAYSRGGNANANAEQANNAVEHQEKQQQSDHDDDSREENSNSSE"},
  "source": "paper PMC8874776",
  "molecular_target": "PRU2 (PHOSPHATE RESPONSE UBIQUITIN E3 LIGASE 2), full length, in the bait vector pGBKT7 (BD) (Arabidopsis thaliana) (UniProt Q6NQG7)",
  "assay": "two-hybrid; pairwise test: preys in pGADT7 co-transformed with pGBKT7-PRU2 into yeast strain AH109, SD/-Leu/-Trp/-His medium",
  "note": "These are yes or no findings as the source states them, for the method shown. Some binding calls cover weakened binding; strength is not graded here. Sequences can lack the tags named with a protein.",
  "data": [
    {"substance": "full-length TCP8 in the vector pGADT7 (AD) (from UniProt Q9C518 1-401)", "values": [
      {"measurement": "binding", "value": "binds"}
    ]}
  ]
}
